{"source": "PubChem BioAssay AID1745853", "about": "(National Center for Advancing Translational Sciences (NCATS), 2022)", "experiment_in_all_cases": "Primary Screen for Target Class Profiling of Small Molecule Inhibitors of Methyltransferases", "key": {"[1]": {"biological_target": "Glycine N-methyltransferase (Homo sapiens) (UniProt Q14749)", "settings": "purified enzyme, MTase-Glo SAH luminescence; measured here: GNMT inhibition; at 40 µM; stronger effect = lower value", "in_short": "(§1)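 Each enzyme was assayed with SAM and its substrate. SAH formation detected by MTase-Glo luminescence; single-point 40 uM screen[…].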"}, "[2]": {"biological_target": "Guanidinoacetate N-methyltransferase (Homo sapiens) (UniProt Q14353)", "settings": "purified enzyme, MTase-Glo SAH luminescence; measured here: GAMT inhibition; at 40 µM; stronger effect = lower value", "in_short": "as §1"}, "[3]": {"biological_target": "Histamine N-methyltransferase (Homo sapiens) (UniProt P50135)", "settings": "purified enzyme, MTase-Glo SAH luminescence; measured here: HNMT inhibition; at 40 µM; stronger effect = lower value", "in_short": "as §1"}, "[4]": {"biological_target": "Nicotinamide N-methyltransferase (Homo sapiens) (UniProt P40261)", "settings": "purified enzyme, MTase-Glo SAH luminescence; measured here: NNMT inhibition; at 40 µM; stronger effect = lower value", "in_short": "as §1"}, "[5]": {"biological_target": "Phenylethanolamine N-methyltransferase (Homo sapiens) (UniProt P11086)", "settings": "purified enzyme, MTase-Glo SAH luminescence; measured here: PNMT inhibition; at 40 µM; stronger effect = lower value", "in_short": "as §1"}}, "note": "The list shows a part of the results. Shown are side measurements of this screen, not its main read-out; they come without a call. % is set by controls: 0 for no effect and ±100 for the full control effect."}
{"smiles": "O=C(Nc1ccc2c(c1)OCCO2)N[C@@H]1C[C@H](CO)[C@@H](O)[C@H]1O", "values": [{"measurement": "activity change, negative = inhibition", "setting": "[1]", "result": -5.69, "unit": "%"}, {"measurement": "activity change, negative = inhibition", "setting": "[2]", "result": -7.1, "unit": "%"}, {"measurement": "activity change, negative = inhibition", "setting": "[3]", "result": -5.55, "unit": "%"}, {"measurement": "activity change, negative = inhibition", "setting": "[4]", "result": -13, "unit": "%"}, {"measurement": "activity change, negative = inhibition", "setting": "[5]", "result": -7.49, "unit": "%"}]}
{"smiles": "Cc1c(Cl)cccc1N1C(=O)c2cc(-c3cccs3)nn2CC1(C)C(=O)NC1CCCCC1", "note": "(stereo not given)", "values": [{"measurement": "activity change, negative = inhibition", "setting": "[1]", "result": -6.98, "unit": "%"}, {"measurement": "activity change, negative = inhibition", "setting": "[2]", "result": 2.34, "unit": "%"}, {"measurement": "activity change, negative = inhibition", "setting": "[3]", "result": -4.02, "unit": "%"}, {"measurement": "activity change, negative = inhibition", "setting": "[4]", "result": -0.676, "unit": "%"}, {"measurement": "activity change, negative = inhibition", "setting": "[5]", "result": -3.84, "unit": "%"}]}
{"smiles": "Nc1nc2c(ncn2CCC(CO)CO)c(=O)[nH]1", "values": [{"measurement": "activity change, negative = inhibition", "setting": "[1]", "result": -8.16, "unit": "%"}, {"measurement": "activity change, negative = inhibition", "setting": "[2]", "result": -13.8, "unit": "%"}, {"measurement": "activity change, negative = inhibition", "setting": "[3]", "result": -2.72, "unit": "%"}, {"measurement": "activity change, negative = inhibition", "setting": "[4]", "result": -29.4, "unit": "%"}, {"measurement": "activity change, negative = inhibition", "setting": "[5]", "result": -3.54, "unit": "%"}]}
{"smiles": "O=C(Cn1ccc2cc(S(=O)(=O)N3CCCCC3)ccc21)NCc1ccccc1F", "values": [{"measurement": "activity change, negative = inhibition", "setting": "[1]", "result": -0.943, "unit": "%"}, {"measurement": "activity change, negative = inhibition", "setting": "[2]", "result": 2.48, "unit": "%"}, {"measurement": "activity change, negative = inhibition", "setting": "[3]", "result": -5.88, "unit": "%"}, {"measurement": "activity change, negative = inhibition", "setting": "[4]", "result": -10.8, "unit": "%"}, {"measurement": "activity change, negative = inhibition", "setting": "[5]", "result": -6.61, "unit": "%"}]}
{"smiles": "COc1cccc(CCC(=O)N2CCC(OCC3CC3)C2)c1", "note": "(stereo not given)", "values": [{"measurement": "activity change, negative = inhibition", "setting": "[1]", "result": -0.438, "unit": "%"}, {"measurement": "activity change, negative = inhibition", "setting": "[2]", "result": 0.988, "unit": "%"}, {"measurement": "activity change, negative = inhibition", "setting": "[3]", "result": 2.06, "unit": "%"}, {"measurement": "activity change, negative = inhibition", "setting": "[4]", "result": 2.85, "unit": "%"}, {"measurement": "activity change, negative = inhibition", "setting": "[5]", "result": 1.1, "unit": "%"}]}
{"smiles": "Cn1cccc1CN1CC(Oc2ccc(F)cc2F)C1", "values": [{"measurement": "activity change, negative = inhibition", "setting": "[1]", "result": -8, "unit": "%"}, {"measurement": "activity change, negative = inhibition", "setting": "[2]", "result": -1.53, "unit": "%"}, {"measurement": "activity change, negative = inhibition", "setting": "[3]", "result": -5.41, "unit": "%"}, {"measurement": "activity change, negative = inhibition", "setting": "[4]", "result": -4.38, "unit": "%"}, {"measurement": "activity change, negative = inhibition", "setting": "[5]", "result": -4.61, "unit": "%"}]}
{"smiles": "COc1cc2c(c(OC)c1O)C(c1ccc(O)cc1)C1C(=O)OC3C(COC(=O)C1=C2)OC(CO)(OC1OC(COC(=O)/C=C/c2ccc(OC4OC(C)C(O)C(O)C4O)cc2)C(O)C(O)C1O)C3O", "note": "(stereo not given)", "values": [{"measurement": "activity change, negative = inhibition", "setting": "[1]", "result": -13.7, "unit": "%"}, {"measurement": "activity change, negative = inhibition", "setting": "[2]", "result": -7.04, "unit": "%"}, {"measurement": "activity change, negative = inhibition", "setting": "[3]", "result": -6.69, "unit": "%"}, {"measurement": "activity change, negative = inhibition", "setting": "[4]", "result": -16.2, "unit": "%"}, {"measurement": "activity change, negative = inhibition", "setting": "[5]", "result": -16, "unit": "%"}]}
{"smiles": "O=C(NCc1cccc(Cl)c1)c1ccc2oc(-c3cccnc3)nc2c1", "values": [{"measurement": "activity change, negative = inhibition", "setting": "[1]", "result": -7.11, "unit": "%"}, {"measurement": "activity change, negative = inhibition", "setting": "[2]", "result": -10, "unit": "%"}, {"measurement": "activity change, negative = inhibition", "setting": "[3]", "result": -3.03, "unit": "%"}, {"measurement": "activity change, negative = inhibition", "setting": "[4]", "result": -18.4, "unit": "%"}, {"measurement": "activity change, negative = inhibition", "setting": "[5]", "result": -6.42, "unit": "%"}]}
{"smiles": "COc1ccc(N(C(=O)c2ccc(Cl)cc2)S(=O)(=O)c2ccc3c(c2)n(C)c(=O)n3C)cc1", "values": [{"measurement": "activity change, negative = inhibition", "setting": "[1]", "result": -3.48, "unit": "%"}, {"measurement": "activity change, negative = inhibition", "setting": "[2]", "result": 0.909, "unit": "%"}, {"measurement": "activity change, negative = inhibition", "setting": "[3]", "result": -0.408, "unit": "%"}, {"measurement": "activity change, negative = inhibition", "setting": "[4]", "result": 5.81, "unit": "%"}, {"measurement": "activity change, negative = inhibition", "setting": "[5]", "result": -3.3, "unit": "%"}]}
{"smiles": "COc1ccc(-c2cc3n(n2)CC(C)(C(=O)NCc2ccccc2OC)N(c2ccc(OC)cc2)C3=O)cc1", "note": "(stereo not given)", "values": [{"measurement": "activity change, negative = inhibition", "setting": "[1]", "result": 3.23, "unit": "%"}, {"measurement": "activity change, negative = inhibition", "setting": "[2]", "result": 1.57, "unit": "%"}, {"measurement": "activity change, negative = inhibition", "setting": "[3]", "result": 0.539, "unit": "%"}, {"measurement": "activity change, negative = inhibition", "setting": "[4]", "result": -0.111, "unit": "%"}, {"measurement": "activity change, negative = inhibition", "setting": "[5]", "result": 0.082, "unit": "%"}]}
{"smiles": "O=C(NC1CCN(Cc2ccccc2)CC1)C1CCCN(c2cnc3nccnc3c2)C1", "note": "(stereo not given)", "values": [{"measurement": "activity change, negative = inhibition", "setting": "[1]", "result": -4.68, "unit": "%"}, {"measurement": "activity change, negative = inhibition", "setting": "[2]", "result": -1.5, "unit": "%"}, {"measurement": "activity change, negative = inhibition", "setting": "[3]", "result": -12.9, "unit": "%"}, {"measurement": "activity change, negative = inhibition", "setting": "[4]", "result": -12.1, "unit": "%"}, {"measurement": "activity change, negative = inhibition", "setting": "[5]", "result": 0.183, "unit": "%"}]}
{"smiles": "C[S+](=O)([O-])NC1CCN(c2nc3ncccc3o2)C1", "note": "(stereo not given)", "values": [{"measurement": "activity change, negative = inhibition", "setting": "[1]", "result": -1.15, "unit": "%"}, {"measurement": "activity change, negative = inhibition", "setting": "[2]", "result": -7.18, "unit": "%"}, {"measurement": "activity change, negative = inhibition", "setting": "[3]", "result": -1.33, "unit": "%"}, {"measurement": "activity change, negative = inhibition", "setting": "[4]", "result": -10.5, "unit": "%"}, {"measurement": "activity change, negative = inhibition", "setting": "[5]", "result": -7.48, "unit": "%"}]}
{"smiles": "Cc1ccc(-c2nnc3n(Cc4ccc(F)cc4)c(=O)c4ccccc4n23)cc1", "values": [{"measurement": "activity change, negative = inhibition", "setting": "[1]", "result": -11.8, "unit": "%"}, {"measurement": "activity change, negative = inhibition", "setting": "[2]", "result": 2.92, "unit": "%"}, {"measurement": "activity change, negative = inhibition", "setting": "[3]", "result": -4.12, "unit": "%"}, {"measurement": "activity change, negative = inhibition", "setting": "[4]", "result": -8.04, "unit": "%"}, {"measurement": "activity change, negative = inhibition", "setting": "[5]", "result": -3.25, "unit": "%"}]}
{"smiles": "C=C(C)C1CCC2(C(=O)O[C@@H]3O[C@H](CO[C@@H]4O[C@H](CO)[C@@H](O)[C@H](O)[C@H]4O)[C@@H](O)[C@H](O[C@@H]4O[C@@H](C)[C@H](O)[C@@H](O)[C@H]4O)[C@H]3O)CCC3(C(=O)O)C(CCC4C5(C)CCC(O)C(C)(C)C5CCC43C)C12", "note": "(stereo not given in full)", "values": [{"measurement": "activity change, negative = inhibition", "setting": "[1]", "result": 7.35, "unit": "%"}, {"measurement": "activity change, negative = inhibition", "setting": "[2]", "result": 5.14, "unit": "%"}, {"measurement": "activity change, negative = inhibition", "setting": "[3]", "result": 11.5, "unit": "%"}, {"measurement": "activity change, negative = inhibition", "setting": "[4]", "result": -6.42, "unit": "%"}, {"measurement": "activity change, negative = inhibition", "setting": "[5]", "result": 4.04, "unit": "%"}]}
{"smiles": "COc1ccc(CN(C)CC2CCN(C)C2(C)C)cc1C(=O)O", "note": "(stereo not given)", "values": [{"measurement": "activity change, negative = inhibition", "setting": "[1]", "result": -7.08, "unit": "%"}, {"measurement": "activity change, negative = inhibition", "setting": "[2]", "result": -14, "unit": "%"}, {"measurement": "activity change, negative = inhibition", "setting": "[3]", "result": -6.46, "unit": "%"}, {"measurement": "activity change, negative = inhibition", "setting": "[4]", "result": -14.7, "unit": "%"}, {"measurement": "activity change, negative = inhibition", "setting": "[5]", "result": -10.2, "unit": "%"}]}
